# The whole screen tested about 310,000 compounds, of which about 2,200 (0.71%) showed an effect of 50% or more. Effects have a minus sign here. This is one part of the list.
# Biological target: human ether-à-go-go-related gene (hERG) potassium channel (human, UniProt Q12809)
# Assay: primary screen, population patch clamp on CHO cells stably expressing hERG
# Chain of human ether-à-go-go-related gene (hERG) potassium channel (Q12809 whole entry, looked up): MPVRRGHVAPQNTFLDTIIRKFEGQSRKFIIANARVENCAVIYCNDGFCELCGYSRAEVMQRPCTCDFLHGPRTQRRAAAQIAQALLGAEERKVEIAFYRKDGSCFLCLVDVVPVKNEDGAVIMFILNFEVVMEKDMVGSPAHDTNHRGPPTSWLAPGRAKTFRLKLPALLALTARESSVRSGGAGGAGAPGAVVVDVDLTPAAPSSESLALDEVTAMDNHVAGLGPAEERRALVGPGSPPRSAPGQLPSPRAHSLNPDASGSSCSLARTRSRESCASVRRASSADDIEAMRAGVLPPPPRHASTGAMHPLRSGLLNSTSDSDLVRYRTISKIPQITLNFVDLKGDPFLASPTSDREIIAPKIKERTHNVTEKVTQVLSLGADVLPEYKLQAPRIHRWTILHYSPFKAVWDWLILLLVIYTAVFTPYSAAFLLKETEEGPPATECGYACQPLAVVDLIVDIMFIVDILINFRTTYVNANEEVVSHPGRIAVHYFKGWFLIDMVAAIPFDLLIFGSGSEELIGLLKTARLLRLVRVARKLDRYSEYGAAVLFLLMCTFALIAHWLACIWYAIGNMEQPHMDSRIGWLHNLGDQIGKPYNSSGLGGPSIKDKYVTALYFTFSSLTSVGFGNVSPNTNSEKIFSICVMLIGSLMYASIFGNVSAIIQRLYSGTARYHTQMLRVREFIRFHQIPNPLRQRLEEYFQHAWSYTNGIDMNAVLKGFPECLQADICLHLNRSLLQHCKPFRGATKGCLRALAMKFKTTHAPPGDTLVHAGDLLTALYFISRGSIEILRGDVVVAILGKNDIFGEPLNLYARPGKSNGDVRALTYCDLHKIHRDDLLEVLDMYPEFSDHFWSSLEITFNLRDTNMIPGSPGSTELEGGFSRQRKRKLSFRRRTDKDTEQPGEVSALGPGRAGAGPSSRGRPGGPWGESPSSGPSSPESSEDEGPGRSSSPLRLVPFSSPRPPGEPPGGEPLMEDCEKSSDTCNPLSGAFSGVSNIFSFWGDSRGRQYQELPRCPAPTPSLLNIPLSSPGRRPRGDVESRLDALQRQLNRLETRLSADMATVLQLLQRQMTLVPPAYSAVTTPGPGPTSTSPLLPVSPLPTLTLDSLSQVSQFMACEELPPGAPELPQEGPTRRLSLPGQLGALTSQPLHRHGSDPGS
row,SMILES,"hERG current change (%, negative = inhibition) at 1uM"
1,O=C(NCC1(c2ccccc2)CCOCC1)c1cccs1,17.4%
2,O=C(CN1CCN(c2ccccn2)CC1)NCc1cccs1,-12.4%
3,CCn1c(SCC(=O)NC(C)C(C)C)nc2cc(S(=O)(=O)N3CCOCC3)ccc21 (centres unmarked),12.1%
4,Cc1ccc(N2C(=O)c3ccccc3C2=O)cc1C,8.14%
5,Br.CC(Cc1ccc(O)cc1)NCC(O)c1cc(O)cc(O)c1 (centres unmarked),17.7%
6,O=C1CCCN1CCCNS(=O)(=O)c1ccc(F)cc1F,14.5%
7,COc1ccc(-c2csc3ncnc(N4CCN(c5cccc(Cl)c5)CC4)c23)cc1,5.02%
8,O=C(COc1ccc2c3c(c(=O)oc2c1)CCC3)NC(Cc1ccc(Cl)cc1)C(=O)O (centres unmarked),6.32%
9,O=C(NC(Nc1ncc(S(=O)(=O)c2ccc([N+](=O)[O-])cc2)s1)(C(F)(F)F)C(F)(F)F)c1ccc(Cl)cc1,3.47%
10,COc1ccc(/C=N/NC(=O)c2cccc([N+](=O)[O-])c2)cc1OS(=O)(=O)c1ccc(C)cc1,-6.24%
11,Cc1ccsc1/C=C1\CCC(C2CCCC2)C1=O (centres unmarked),15.1%
12,Cc1ccc(S(=O)(=O)N(C)CCCC(=O)N2CCCCC2)cc1,6.01%
13,CCC(C)(C(=O)NC1CCCCC1)N(Cc1ccco1)C(=O)c1ccc2c(c1)OCO2 (centres unmarked),1.6%
14,Cc1ccc(C)c(N2CCN(C(=O)c3cc4c(C)nc5ccccc5c4o3)CC2)c1,8.53%
15,CCN1C(=O)[C@H]2[C@@H](c3ccc(-c4ccc(C(C)=O)cc4)cc3)N3CCCC[C@@]3(C(=O)OC)[C@H]2C1=O.O=C(O)C(F)(F)F,11.3%
16,Cc1ccc(C)c(Nc2nc(N)c3ccccc3n2)c1.Cl,-7.38%
17,CC(C)CC(c1nnnn1CCc1ccccc1)N1CCC(C(N)=O)CC1 (centres unmarked),4.62%
18,COC(=O)CCCCCCCCC(O)CN(C)C (centres unmarked),16.2%
19,Cc1ccccc1Cn1c(=N)n(CC(O)c2ccco2)c2ccccc21.Cl (centres unmarked),-33.4%
20,O=C(/C=C/c1ccc(Cl)c(Cl)c1)N1CCOCC1,7.16%
21,N#CCCN(C(=O)c1cc2c(s1)-c1ccccc1S(=O)(=O)C2)c1ccccc1,-1.14%
22,Cc1ccc(S(=O)(=O)NCC(=O)N(CC2CCCO2)C(C(=O)NCC2CCCO2)C(C)C)cc1 (centres unmarked),11.8%

row,SMILES,"hERG current change (%, negative = inhibition) at 1uM"
1,Cc1ccc[n+](CC(=O)Nc2cccc(Cl)c2)c1.[Cl-],15.8%
2,CC(OC(=O)CCc1ccccc1)C(=O)Nc1ccc(Cl)cn1 (centres unmarked),1.27%
3,CCC(Cc1ccccc1)NC(=O)C1CCN(S(=O)(=O)c2ccc3c(c2)CC(C)N3C(C)=O)CC1 (centres unmarked),16.9%
4,CN(C)CCCN1CC(=O)N2[C@@H](Cc3c([nH]c4ccccc34)C2(C)C)C1=O,14.1%
5,CC(=O)Nc1ccc(NC(=O)C2(C)CC2(Cl)Cl)cc1 (centres unmarked),18.6%
6,Cc1occc1C(=O)Nc1nccs1,10%
7,Cc1cccc(C(=O)NNC(=O)c2ccc(-c3ccccc3)cc2)c1,17.2%
8,COC(=O)C1=CNC=C(C(=O)OC)C1c1cccc(OC)c1,9.02%
9,Cc1ccc(C)n1NC(=O)c1ccccc1O,0.407%
10,Cc1nc(Cl)c(C(=O)NCCC(C)C)c(C)c1[N+](=O)[O-],1.57%
11,COc1ccc(C2(C)NC(=O)N(CC(=O)c3cc(C)n(C4CC4)c3C)C2=O)cc1OC (centres unmarked),8.04%
12,CN(CC(=O)Nc1ccccc1N1CCOCC1)S(=O)(=O)c1ccc(F)cc1,-11.9%
13,Cc1cc(C)n(-c2nc(Nc3ccccc3)nc(-n3nc(C)cc3C)n2)n1,12.1%
14,Cc1cccc(NC(=O)CCCc2ccccc2)c1,4.36%
15,CC(C)S(=O)(=O)N1CCN(c2ccnc3cc(Cl)ccc23)CC1,-55.2%
16,COCCn1c(SCC(=O)Nc2ccccc2OC)nc2ccccc2c1=O,-3.56%
17,CC(C)OC(=O)c1cccc(C(=O)OCc2ccco2)n1,14%
18,Cc1ccc(-c2cc(Cc3ccc(N(C)C)cc3)c(=O)[nH]n2)cc1,13.3%
19,CC(C)(CN1CCN(Cc2ccccc2)CC1)NS(=O)(=O)c1ccc(Cl)cc1,-35.1%
20,COCCNC(=O)c1cnn2c(C(F)F)cc(-c3ccccc3)nc12,7.77%
21,COc1ccc(/C=N/N=C2/CC(C)(C)Cc3n[nH]c(=O)cc32)cc1,6.65%
22,Cc1ccc(S(=O)(=O)N(C)CC(=O)Nc2ccccc2N2CCCC2)cc1,6.45%

row,SMILES,"hERG current change (%, negative = inhibition) at 1uM"
1,COc1ccccc1OCc1ccc(C(=O)OCC2CCCO2)o1 (centres unmarked),7.92%
2,Cc1[nH]c2ccccc2c1Cc1n[nH]c(=S)n1C,19.9%
3,COc1ccccc1N1CCN(CCOc2c(OC)cccc2OC)CC1.Cl,-13.6%
4,O=C(CCCn1c(=O)[nH]c2ccsc2c1=O)N1CCN(Cc2ccc3c(c2)OCO3)CC1,-1.85%
5,CC1CC(C)CN(S(=O)(=O)c2ccc3c(c2)CC(=O)N3)C1 (centres unmarked),-5.1%
6,CCCC(=O)Nc1ccc2oc(-c3cncc(Br)c3)nc2c1,5.87%
7,Cc1ccc(C(=O)N/C(=C\c2cccs2)C(=O)NCCc2c[nH]c3ccccc23)cc1C,-11.2%
8,COC(=O)N1C(=O)[C@](c2ccc(OC)cc2)(C(C)C)N1C(=O)OC,15.1%
9,O=C(N/N=C/c1cccc(O)c1)c1ccc(COc2ccc3c(c2)CCC3)o1,8.22%
10,COc1cc(C(=O)Nc2ccc3nc(N4CCOCC4)sc3c2)cc(OC)c1OC,0.266%
11,COc1cc(NC(=O)CN2C(=O)NC(c3ccccc3)(c3ccccc3)C2=O)c(C)cc1[N+](=O)[O-],9.69%
12,Cc1nn(Cc2ccc([N+](=O)[O-])cc2)c(=O)n1-c1cccc(Cl)c1,2.3%
13,CCOC(=O)CNC(=O)CSc1nnc(NC(=O)c2ccc(S(=O)(=O)N3CCOCC3)cc2)s1,11.3%
14,Cc1nn(-c2ccccc2)c2c1C1(C(=O)N(C)c3ccccc31)N(c1ccccc1)C(=O)N2 (centres unmarked),-9.6%
15,CN(C)S(=O)(=O)c1cccc(NC(=O)COC(=O)CCC(=O)c2cccs2)c1,-0.771%
16,O=C(CNCC1CCCO1)N1CCCCCC1.O=C(O)C(=O)O (centres unmarked),11.2%
17,COc1ccc(C(=O)NCc2csc(C(C)C)n2)cc1OC1CCN(C(C)=O)CC1,12.9%
18,Nc1nc(-c2ccccc2)cc(C(F)(F)F)n1,12.6%
19,CCOC(=O)N1CCN(C(=O)CCn2c(=O)[nH]c3ccsc3c2=O)CC1,11.6%
20,CC(C)(C)c1ccc(S(=O)(=O)NCC(=O)N2CCN(Cc3ccccc3)CC2)cc1,5.56%
21,CN1CCN(S(=O)(=O)c2cc(Cl)c(Cl)cc2Cl)CC1,14.5%
22,COc1cc(C)c(C(=O)Oc2cc(C)c(C(=O)O)c(O)c2)c(O)c1,14.8%

row,SMILES,"hERG current change (%, negative = inhibition) at 1uM"
1,COc1ccc(CN2CCC(C(=O)Nc3ccc(Oc4cccnc4)cc3)CC2)c(C)c1C,2.89%
2,COc1ccc(OC)c(NC(=O)C(=O)NNC(=O)c2cccs2)c1,11.9%
3,CC(C)n1c(CNC(=O)c2ccccc2)nc2ccccc21,10%
4,COc1ccc(OCC#CCn2ccnc2)cc1.O=C(O)C(=O)O,12.2%
5,CSc1n[nH]c(NCc2ccc(C)cc2)n1,11.4%
6,O=C(NCCc1ccccc1)c1cccc(S(=O)(=O)NCc2ccccc2)c1,-12.7%
7,CCN(CC(=O)Nc1c(F)cccc1F)C(=O)c1ccc(N2CCCCC2)c([N+](=O)[O-])c1,3.85%
8,O=C(Nc1ccc(Br)cc1)c1cccc(N2C(=O)C3C4C=CC(C4)C3C2=O)c1 (centres unmarked),5.41%
9,Cc1nc(C(=O)Nc2ccccc2)sc1C(=O)Nc1ccccc1,10.5%
10,Cc1cc(S(=O)(=O)c2ccc([N+](=O)[O-])cn2)ccc1Br,12.7%
11,Nc1c(-c2ccccc2Cl)cnn1-c1cccc([N+](=O)[O-])c1,-7.78%
12,Cc1ccc(CSCC(=O)N(CCC(C)C)c2c(N)n(Cc3ccccc3)c(=O)[nH]c2=O)cc1,-11.2%
13,CCOC(=O)c1cc(C)n(CCc2ccccc2)c1C,12.3%
14,COc1cccc(OCc2cc(C(=O)NCc3cnc4ccccn34)no2)c1,3.98%
15,Cc1noc(C)c1CSc1nnc(-c2cccnc2)n1C1CCCCC1C (centres unmarked),-7.22%
16,COc1ccc(OC)c(/C=C2\SC(=S)N(NS(=O)(=O)c3ccccc3)C2=O)c1,3.97%
17,O=C(Oc1cc(-c2ccccc2)no1)c1ccc(Cl)cc1,10.6%
18,O=C(NCCCO)c1ccc2[nH]c3ccccc3c2c1,13.4%
19,COc1cc(-c2noc(C3CCCN(S(=O)(=O)c4cccc(Cl)c4)C3)n2)cc(OC)c1OC (centres unmarked),-0.0886%
20,O=C(NCc1ccccc1)C1CCN(S(=O)(=O)c2cc([N+](=O)[O-])ccc2Cl)CC1,1.19%

# From publication PMC4336329 (PLoS ONE, 2015)
